From the supplement of paper PMC6089552
Out of some 3,200 compounds screened, about 300 (9.4%) showed activity. The list shows a part of the results, in another mix than the full data.

System: A673/TR/shEF
Assay: cell viability (LOESS-normalised, relative to median of negative controls) (log2 ratio); higher = more viable cells (less compound effect), active = hit call of the paper (over 3 MAD below the median)
Conditions: treatment time: 72 h
Method in brief: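 Viability of A673/TR/shEF Ewing sarcoma cells was determined by CellTiter-Glo luminescence. The cells, at 1,500 per well in 384-well plates, were grown with or without doxycycline from 24 h before compound addition to switch on EWS-FLI1 shRNA knockdown, then exposed for three days to library compounds at two or more concentrations or to DMSO controls. Signals were LOESS-corrected plate by plate, normalised to the negative-control median and log2-transformed.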

[1] = 0.25 µM, library screen: screen2, EWS-FLI1 expression: high (no doxycycline)
[2] = 0.25 µM, library screen: screen2, EWS-FLI1 expression: low (doxycycline-induced shRNA knockdown)
[3] = 2.5 µM, library screen: screen2, EWS-FLI1 expression: high (no doxycycline)
[4] = 2.5 µM, library screen: screen2, EWS-FLI1 expression: low (doxycycline-induced shRNA knockdown)
[5] = 0.25 µM, library screen: screen1, EWS-FLI1 expression: high (no doxycycline)
[6] = 0.25 µM, library screen: screen1, EWS-FLI1 expression: low (doxycycline-induced shRNA knockdown)
[7] = 2.5 µM, library screen: screen1, EWS-FLI1 expression: high (no doxycycline)
[8] = 2.5 µM, library screen: screen1, EWS-FLI1 expression: low (doxycycline-induced shRNA knockdown)

## CC[C@@H]1/C=C/C=C/C[C@H](C)[C@@H](O)[C@](C)(O)C(=O)[C@H](C)[C@@H](O)[C@H](C)C(=O)[C@H](C)[C@@H](O)[C@H](C)/C=C/C(=O)O[C@H]2[C@@H](C)[C@@H](CC1)O[C@@]1(CC[C@@H](C)[C@@H](C[C@H](C)O)O1)[C@@H]2C
[1]
  cell viability (log2): active: -0.731
[2]
  cell viability (log2): active: -0.205
[3]
  cell viability (log2): active: -0.713
[4]
  cell viability (log2): active: -0.154

## Oc1cc2c(cc1O)[C@H]1c3ccccc3CN[C@@H]1CC2
[1]
  cell viability (log2): inactive: 0.0852
[2]
  cell viability (log2): inactive: -0.0099
[3]
  cell viability (log2): inactive: 0.117
[4]
  cell viability (log2): inactive: 0.00998

## Clc1cnc(Oc2ccc(Oc3ncc(Cl)cc3Cl)cc2)c(Cl)c1
[1]
  cell viability (log2): inactive: 0.042
[2]
  cell viability (log2): inactive: 0.0675
[3]
  cell viability (log2): inactive: 0.18
[4]
  cell viability (log2): inactive: 0.102

## CNCCc1ccc(O)c(O)c1
[1]
  cell viability (log2): inactive: 0.188
[2]
  cell viability (log2): inactive: 0.11
[3]
  cell viability (log2): inactive: 0.188
[4]
  cell viability (log2): inactive: 0.0767

## CC1=NCCc2c1[nH]c1cc(O)ccc21
[5]
  cell viability (log2): inactive: 0.0932
[6]
  cell viability (log2): inactive: -0.00297
[7]
  cell viability (log2): inactive: 0.128
[8]
  cell viability (log2): inactive: -0.00118

## C=C[C@H]1CN2CC[C@H]1C[C@H]2[C@H](O)c1ccnc2ccccc12
[5]
  cell viability (log2): inactive: 0.0661
[6]
  cell viability (log2): inactive: 0.0434
[7]
  cell viability (log2): inactive: 0.171
[8]
  cell viability (log2): inactive: 0.109

## C[C@H]1O[C@@H](O[C@H]2[C@@H](O)C[C@H](O[C@H]3[C@@H](O)C[C@H](O[C@H]4CC[C@@]5(C)[C@H](CC[C@@H]6[C@@H]5CC[C@]5(C)[C@@H](C7=CC(=O)OC7)[C@@H](O)C[C@]65O)C4)O[C@@H]3C)O[C@@H]2C)C[C@H](O)[C@@H]1O
[5]
  cell viability (log2): active: -0.13
[6]
  cell viability (log2): active: -0.332
[7]
  cell viability (log2): active: -1.73
[8]
  cell viability (log2): active: -1.76

## COc1ccc2c(c1)[C@]13CCCC[C@@H]1[C@H](C2)N(C)CC3
[5]
  cell viability (log2): inactive: 0.155
[6]
  cell viability (log2): inactive: 0.126
[1]
  cell viability (log2): inactive: 0.0495
[2]
  cell viability (log2): inactive: 0.122
[7]
  cell viability (log2): inactive: 0.201
[8]
  cell viability (log2): inactive: 0.203
[3]
  cell viability (log2): inactive: 0.0672
[4]
  cell viability (log2): inactive: 0.0213

## C[N+]1(C)C2CC(OC(=O)C(CO)c3ccccc3)CC1C1OC12 (centres undefined)
[5]
  cell viability (log2): inactive: 0.0929
[6]
  cell viability (log2): inactive: 0.0137
[7]
  cell viability (log2): inactive: 0.182
[8]
  cell viability (log2): inactive: 0.0439

## C[C@]12CC[C@H]3[C@@H](CC[C@]4(O)C[C@@H](O)CC[C@]34C=O)[C@@]1(O)CC[C@@H]2C1=CC(=O)OC1
[5]
  cell viability (log2): inactive: 0.0251
[6]
  cell viability (log2): inactive: -0.17
[7]
  cell viability (log2): active: -1.21
[8]
  cell viability (log2): active: -1.3

## CCN(CC)C(=O)N[C@H]1C=C2c3cccc4[nH]cc(c34)C[C@H]2N(C)C1
[1]
  cell viability (log2): inactive: 0.144
[2]
  cell viability (log2): inactive: 0.146
[3]
  cell viability (log2): inactive: 0.172
[4]
  cell viability (log2): inactive: 0.138

## COC(=O)COc1ccc(Cl)cc1Cl
[5]
  cell viability (log2): inactive: 0.022
[6]
  cell viability (log2): inactive: -0.0423
[7]
  cell viability (log2): inactive: 0.11
[8]
  cell viability (log2): inactive: 0.0409

## C#CCN(C)C(C)Cc1ccccc1 (centres undefined)
[1]
  cell viability (log2): inactive: 0.172
[2]
  cell viability (log2): inactive: 0.0896
[3]
  cell viability (log2): inactive: 0.201
[4]
  cell viability (log2): inactive: 0.16

## S=C(NC1CCCCC1)N1CCC(c2cnc[nH]2)CC1
[1]
  cell viability (log2): inactive: 0.127
[2]
  cell viability (log2): inactive: 0.0827
[3]
  cell viability (log2): inactive: 0.121
[4]
  cell viability (log2): inactive: 0.058

## NC(N)=NOCC[C@H](N)C(=O)O
[5]
  cell viability (log2): inactive: 0.0571
[6]
  cell viability (log2): inactive: 0.021
[1]
  cell viability (log2): inactive: 0.136
[2]
  cell viability (log2): inactive: 0.123
[7]
  cell viability (log2): inactive: 0.165
[8]
  cell viability (log2): inactive: 0.0918
[3]
  cell viability (log2): inactive: 0.125
[4]
  cell viability (log2): inactive: 0.0815

## N[C@@H](Cn1oc(=O)[nH]c1=O)C(=O)O
[1]
  cell viability (log2): inactive: 0.128
[2]
  cell viability (log2): inactive: 0.0395
[3]
  cell viability (log2): inactive: 0.233
[4]
  cell viability (log2): inactive: 0.0667

## COC(C)(C)CCCC(C)C/C=C/C(C)=C/C(=O)OC(C)C (centres undefined)
[5]
  cell viability (log2): inactive: -0.00169
[6]
  cell viability (log2): inactive: 0.0238
[7]
  cell viability (log2): inactive: 0.116
[8]
  cell viability (log2): inactive: 0.0204

## CC(C)[N+](C)(CCC(C(N)=O)(c1ccccc1)c1ccccc1)C(C)C
[5]
  cell viability (log2): inactive: 0.109
[6]
  cell viability (log2): inactive: -0.026
[7]
  cell viability (log2): inactive: 0.23
[8]
  cell viability (log2): inactive: 0.0352

## CC1=C[C@@H]2c3cccc4[nH]cc(c34)C[C@H]2N(C)C1
[1]
  cell viability (log2): inactive: 0.126
[2]
  cell viability (log2): inactive: 0.0939
[3]
  cell viability (log2): inactive: 0.18
[4]
  cell viability (log2): inactive: 0.0817

## C#C[C@]1(O)CC[C@H]2[C@@H]3CCC4=CC(=O)CC[C@]4(C)[C@H]3CC[C@@]21C
[5]
  cell viability (log2): inactive: 0.0673
[6]
  cell viability (log2): inactive: 0.126
[7]
  cell viability (log2): inactive: 0.0646
[8]
  cell viability (log2): inactive: 0.0208

## COP(=S)(OC)SCn1nnc2ccccc2c1=O
8.3 µM, library screen: screen3, EWS-FLI1 expression: high (no doxycycline)
  cell viability (log2): active: -0.267
25 µM, library screen: screen3, EWS-FLI1 expression: high (no doxycycline)
  cell viability (log2): active: -0.422

## COP(=S)(OC)Oc1ccc(SC)c(C)c1
[5]
  cell viability (log2): inactive: 0.104
[6]
  cell viability (log2): inactive: 0.089
[7]
  cell viability (log2): inactive: 0.0562
[8]
  cell viability (log2): inactive: 0.116
